Hit rate of the full screen: of about 310,000 compounds, about 2,200 (0.71%) showed an effect of 50% or more. The effect is printed as a negative number. The list shows a part of the results.
Target: human ether-à-go-go-related gene (hERG) potassium channel (human, UniProt Q12809)
Assay: primary screen, population patch clamp on CHO cells stably expressing hERG

Sequence of human ether-à-go-go-related gene (hERG) potassium channel (Q12809 whole entry, looked up): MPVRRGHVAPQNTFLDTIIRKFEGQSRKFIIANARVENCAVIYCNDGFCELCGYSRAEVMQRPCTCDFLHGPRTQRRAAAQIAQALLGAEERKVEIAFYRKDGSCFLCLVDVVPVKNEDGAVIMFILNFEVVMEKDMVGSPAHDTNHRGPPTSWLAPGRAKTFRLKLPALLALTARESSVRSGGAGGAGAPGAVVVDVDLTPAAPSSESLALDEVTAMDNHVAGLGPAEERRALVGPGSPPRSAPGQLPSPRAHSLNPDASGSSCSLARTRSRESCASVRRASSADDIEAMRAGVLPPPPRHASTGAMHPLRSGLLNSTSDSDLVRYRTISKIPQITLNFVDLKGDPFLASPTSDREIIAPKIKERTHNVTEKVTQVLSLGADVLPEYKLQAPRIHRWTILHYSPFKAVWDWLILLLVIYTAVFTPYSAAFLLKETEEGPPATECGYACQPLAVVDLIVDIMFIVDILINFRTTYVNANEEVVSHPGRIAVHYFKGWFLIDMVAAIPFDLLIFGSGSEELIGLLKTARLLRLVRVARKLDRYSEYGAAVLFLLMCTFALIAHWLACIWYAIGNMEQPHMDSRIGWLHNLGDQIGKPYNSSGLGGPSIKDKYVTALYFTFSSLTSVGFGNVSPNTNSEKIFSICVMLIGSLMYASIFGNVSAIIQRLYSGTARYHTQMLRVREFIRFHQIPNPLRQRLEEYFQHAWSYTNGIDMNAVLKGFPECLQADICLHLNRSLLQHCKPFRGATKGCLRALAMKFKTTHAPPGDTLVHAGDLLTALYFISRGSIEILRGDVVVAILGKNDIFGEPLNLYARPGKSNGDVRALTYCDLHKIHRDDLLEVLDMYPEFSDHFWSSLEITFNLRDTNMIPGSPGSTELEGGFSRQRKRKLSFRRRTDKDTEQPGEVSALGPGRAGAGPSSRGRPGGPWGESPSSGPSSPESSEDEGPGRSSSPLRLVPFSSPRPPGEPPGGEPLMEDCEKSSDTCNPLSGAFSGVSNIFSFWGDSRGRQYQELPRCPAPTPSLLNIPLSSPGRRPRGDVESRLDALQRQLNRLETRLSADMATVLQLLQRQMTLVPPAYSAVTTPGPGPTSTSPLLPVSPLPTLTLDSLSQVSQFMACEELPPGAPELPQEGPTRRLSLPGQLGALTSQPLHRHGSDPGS

Row | SMILES | hERG current change (%, negative = inhibition) at 1uM [%]
1 | CC(C)n1cc(C(=O)N2CCCC(Nc3ccc(F)c(F)c3)C2)cn1 (stereo not shown) | 6.02
2 | CC1CCN(C(=O)CSc2nc(N)c(NC(=O)c3ccccc3)c(=O)[nH]2)CC1 | 7.92
3 | Cc1nnc(SCc2cccc([N+](=O)[O-])c2)[nH]c1=O | 7.89
4 | COc1ccc(-c2nc(N/N=C(\C)c3ccc(O)cc3)c3ccccc3n2)cc1 | 7.19
5 | O=C(CN1CCC(C(=O)c2ccc(F)cc2)CC1)Nc1ccccc1Cl | 7.94
6 | CC(C)c1ccc(NC(=O)CSc2nc3ccsc3c(=O)n2CCC(=O)O)cc1 | 15.4
7 | Cc1ccc(NC(=O)c2ccccc2N(C)S(C)(=O)=O)cc1C | 11.4
8 | O=C1CSc2ccccc2N1Cc1ccccc1F | -16.8
9 | CC(C)(C)c1ccc(-c2cc(-c3ccccc3O)[nH]n2)cc1 | 16.8
10 | O=C(Nc1ccc2c(c1)OCO2)c1cc2n(n1)C(C(F)(F)F)CC(c1ccccc1)N2 (stereo not shown) | 7.57
11 | Cc1nn(C(C)C(=O)NC(C)CCc2ccccc2)c(=O)c2cc3occc3n12 (stereo not shown) | -0.955
12 | O=C(CCSCc1ccccc1)Nc1ccc2c(c1)OCCO2 | 7.61
13 | CC1Nc2ncnc(N3CCOCC3)c2N(Cc2ccc(Cl)cc2)C1=O.O=C(O)C(F)(F)F (stereo not shown) | 4.45
14 | Cc1ccc(-c2nnc(C)c(N3CCCC3)n2)cc1 | 9.17
15 | CCC(C)(C)n1nnnc1C(c1ccc(O)c(OC)c1)N1CCc2ccccc2C1.Cl (stereo not shown) | -12.7
16 | COc1ccc(NC(=O)C2CCCN2C(=O)OCc2ccccc2)c(OC)c1 (stereo not shown) | 0.754
17 | Cc1nn(-c2ccccc2)c(C)c1NC(=O)COc1ccc(F)cc1Cl | 0.849
18 | CCOC(=O)N1CCN(C(=S)NC(=O)c2cncc(Br)c2)CC1 | 5.31
19 | CC(=O)Nc1ccc(NC(=O)C2CCN(C(=O)c3cccs3)CC2)cc1 | 10
20 | Cc1noc(NS(=O)(=O)c2ccc(NC(=O)c3ccc(N(C)C)cc3)cc2)c1C | 9.87
21 | N/C(=N\OC(=O)c1cccc(Cn2cc(C(F)(F)F)ccc2=O)c1)c1ccc(Cl)cc1 | 11.4
22 | Cc1[nH]c2ccccc2c1C(C[N+](=O)[O-])c1cccs1 (stereo not shown) | 7.6

Row | SMILES | hERG current change (%, negative = inhibition) at 1uM [%]
23 | CS(=O)(=O)N(CC(N)=O)c1ccc2c(c1)OCO2 | 12.3
24 | O=C(Cc1cccs1)N(Cc1cccs1)C1(C(=O)NC2CCCC2)CCCCC1 | 10.6
25 | COc1ccc(/C=N/Nc2cc(=O)n(C)c(=O)n2C)cc1OC | 10.1
26 | CC1CC(C)CN(C(=O)COC(=O)Cc2c[nH]c3ccccc23)C1 (stereo not shown) | 12.2
27 | COc1ccc(N2CCN(C(=O)C3CCCN(S(=O)(=O)c4ccc(F)cc4)C3)CC2)cc1 (stereo not shown) | -7.16
28 | CC(=O)NC(CC(=O)N(C)Cc1cccc(Cl)c1Cl)c1ccccc1 (stereo not shown) | 6.88
29 | O=C(CN1CCN(C(=O)c2ccccc2)CC1)Nc1ccccc1 | 3.18
30 | O=C(c1cccs1)N(Cc1ccc(Cl)cc1)C1CCS(=O)(=O)C1 (stereo not shown) | -0.0056
31 | Cc1csc(=Nc2c(C)n(C)n(-c3ccccc3)c2=O)n1-c1ccccc1 | 16
32 | Cc1ccc(/C=N/NC(=O)C2(O)c3ccccc3-c3ccccc32)o1 | 4.7
33 | Cn1c(=O)c([N+](=O)[O-])c(NCC2CCCO2)c2ccccc21 (stereo not shown) | 6.92
34 | C/C=N\NC(=O)COc1cc(C)ccc1C | 10.4
35 | O=C(CCC(=O)N1CCN(S(=O)(=O)c2ccc(Cl)cc2)CC1)NC1CCCc2ccccc21 (stereo not shown) | -11.7
36 | Cc1ccc(C)c(Nc2nc3c(S(=O)(=O)c4ccccc4)nnn3c3ccccc23)c1 | 4.12
37 | CC(=O)Nc1ccc(C(=O)CSc2nnnn2C2CCCC2)cc1 | 11.3
38 | CN(CCCS(=O)(=O)[O-])c1ccc(/C=C/c2ccc3ccccc3[n+]2C)cc1 | 16.4
39 | O=S(=O)(Nc1ccccc1)c1ccc(S(=O)(=O)N2CCCC2)cc1 | -7.07
40 | CCc1ccc(/C=C2/SC(=S)N(CCC(=O)Nc3ccc(C(=O)O)cc3)C2=O)cc1 | 15.3
41 | CCc1nc2ccccc2c(C(=O)Nc2ccc(C)cc2)c1C | 16.4
42 | CCCCC(=O)Nc1nnc(SCC(=O)NC2CCCC2)s1 | 17.1
43 | O=C(CSc1ccc2nnc(CCNC(=O)c3ccc(F)cc3)n2n1)NCc1ccco1 | 9.13
44 | Cl.c1ccc(Cn2nnnc2CN2CCCC2)cc1 | 10.1

Row | SMILES | hERG current change (%, negative = inhibition) at 1uM [%]
45 | Cc1cc(C)nc(N2CCC(C(=O)Nc3ccc4c(c3)OCCO4)CC2)n1 | 8.89
46 | COc1ccc(OC)c(S(=O)(=O)NCc2cn3c(C)csc3n2)c1 | 12.3
47 | CC1(c2ccccc2Cl)NC(=O)N(CC(=O)NCCC2=CCCCC2)C1=O (stereo not shown) | -11.3
48 | COc1ccc(NC(=O)c2ccccc2NC(=O)CSc2ccccc2)cc1 | 16.3
49 | CC(=O)Nc1ccc(S(=O)(=O)N(C)CC(=O)OCC(=O)Nc2cccnc2Cl)cc1 | 9.62
50 | CCC(Oc1cc(Cl)ccc1Cl)C(=O)N1CCCN(C)CC1 (stereo not shown) | 12.4
51 | Cc1ccc(N(C(=O)c2csnn2)C(C(=O)NCc2ccccc2)c2ccccn2)cc1 (stereo not shown) | -6.33
52 | NC(N)=N/N=C/c1ccc(N2CCOCC2)cc1.O=[N+]([O-])O | 13.6
53 | CC(C)C(=O)Nc1cccc(C(=O)Nc2ccc3c(c2)OCO3)c1 | 6.5
54 | COc1cccc(N2CCN(C(=O)c3ccc4nc(N5CCC(C)CC5)sc4c3)CC2)c1 | 0.61
55 | COc1ccc(NS(=O)(=O)c2ccc(NS(=O)(=O)c3cccs3)cc2)cc1 | 15.2
56 | COC(=O)c1ccc(NC(=O)Cn2cnc3c(nnn3-c3cccc(OC)c3)c2=O)cc1 | 2.01
57 | O=C(COC(=O)c1cccc(Br)c1)Nc1ccc2[nH]c(=O)[nH]c2c1 | 20.1
58 | CN(C)c1cccc(C(=O)N/N=C/c2ccoc2)c1 | 9.45
59 | COC(=O)Cn1cc(/C=C2\C(=O)NC(=O)N(c3ccc(OC)cc3)C2=O)c2ccccc21 | 11.1
60 | CC1CCCC(C)N1/N=C/c1cccc(Br)c1 (stereo not shown) | 7.83
61 | CC(C)C(C(=O)O)N1C(=O)/C(=C/C=C/c2ccco2)SC1=S (stereo not shown) | 15.6
62 | CC(C)CCN1CCN(Cc2ccc(Sc3nncn3C)o2)CC1CCO (stereo not shown) | 13.8
63 | O=C(CN1C(=O)CCC1=O)Nc1nc(-c2ccccn2)cs1 | 20
64 | CC1CCN(CCOc2ccc(C(=O)c3ccccc3)cc2)CC1.O=C(O)C(=O)O | 3.49
65 | Cc1cccc(NC(=O)C2CCN(S(=O)(=O)c3cccc4nsnc34)CC2)n1 | 6.3
66 | CC(CC(=O)Nc1nccs1)c1ccccc1 (stereo not shown) | 13.8

Row | SMILES | hERG current change (%, negative = inhibition) at 1uM [%]
67 | O=C(COC(=O)c1cccs1)NC1CCCCC1 | 9.01
68 | Cc1ccc(OCC(=O)N/N=C\c2ccncc2)c(C)c1 | 0.981
69 | CN(CC(=O)NCC1CCCCC1)S(=O)(=O)c1ccc(Cl)cc1 | 16.2
70 | CCOC(=O)/C(=N\Nc1ccccc1)N1CC1 | 20.3
71 | CCCCCN(C(=O)CCC(=O)OCC(=O)N1C(C)CCCC1C)c1c(N)n(CCCC)c(=O)[nH]c1=O (stereo not shown) | 12.8
72 | CC1CCCCN1C(=S)NC(=O)c1cc(Br)ccc1Cl (stereo not shown) | 0.369
73 | Cc1cc(C(=O)OCC(=O)Nc2cc(S(=O)(=O)N(C)C)ccc2Cl)c2ccccc2n1 | 8.57
74 | CN(C(=O)c1ccc(NC(=O)Cc2ccc(NC(=O)C3CCCN(C(=O)C4CCC4)C3)cc2)cc1)C1CC1 (stereo not shown) | 7.35
75 | O=C(Nc1sc2c(c1C(=O)c1ccc(Cl)cc1)CCCC2)c1cccnc1 | 8.92
76 | c1ccc(CSc2nnc(-c3ccncc3)o2)cc1 | -4.89
77 | CCOC(=O)C1(Cc2cccc(Cl)c2)CCCN(CCO)C1 (stereo not shown) | 5.84
78 | CC(=O)c1ccc(N=Nc2c(C)[nH]n(-c3ccccc3)c2=O)cc1 | 10.2
79 | O=C(COc1ccc(S(=O)(=O)N2CCCCC2)cc1)NCc1ccncc1 | -17
80 | CC1CCCN(S(=O)(=O)c2ccc(S(=O)(=O)NC(C)c3cccs3)cc2)C1 (stereo not shown) | 3.82
81 | CC1=CS(=O)(=O)CC1SC1=NC(C)=N[NH2+]1.[Br-] (stereo not shown) | 14.1
82 | Cc1ccc(/C=N/N=C2/NC(=O)CS2)o1 | 12
83 | CCOC(=O)C1CCN(C(=S)Nc2cccc(C)c2C)CC1 | 12.3
84 | COc1ccc(-n2c(CNc3ccc(C)cc3)nnc2SCC(=O)Nc2nc(-c3ccccc3)cs2)cc1 | 6.38
85 | Cc1ccc(NC2=CC(=O)CC(C)(C)C2)cc1F | 8.11
86 | CN1CCN(c2ccc(NC(=O)c3cc4ccccc4o3)cc2)CC1 | -14.8
87 | O=C(NCc1cccs1)C1CCCN1C(=O)Nc1ccccc1[N+](=O)[O-] (stereo not shown) | 0.73
88 | Cc1cc(Cl)ccc1OCC(=O)NCC(c1cccs1)N1CCOCC1 (stereo not shown) | -1.73

From article PMC4336329 (PLoS ONE, 2015)
